# PubChem BioAssay AID1347073 (National Center for Advancing Translational Sciences (NCATS), 2019)
# Screen size: about 45,000 compounds; about 200 (0.44%) were called active. About 7% were inconclusive and are not listed. Calls follow the shape of the dose curve; as a rule, active = well fitted activation curve with a large enough effect; inconclusive = small, poorly fitted or top-dose-only effect; inactive = no such curve, though single readings can be large or run the other way. The list shows a part of the results.
# Assay: qHTS of TDP-43 Inhibitors: NCGC Sytravon Library Screen; also: nearly all actives have a fitted effect of over 55% in size; as to growth rescue (activation): 0% is about no effect
# Conditions: yeast TDP-43 toxicity rescue, BacTiter-Glo growth, 24 h; series mostly up to 46.1 µM; growth rescue (activation): at the top concentration
# Method in brief: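 TDP-43-expressing yeast, pregrown in raffinose, seeded at OD600 0.02 in galactose medium with compound for 24 hr at 30 deg C. Growth read by BacTiter-Glo luminescence, so rescue of toxicity appears as activation.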
# Potency is read from the fitted curve at half-maximal effect.
SMILES,growth rescue (activation),Potency
COc1ccc(C(=O)Nc2nc3ccccc3s2)c(OC)c1,inactive: -34.6%,
CC(=O)c1ccc(N(C(=O)CNC(=O)c2cccs2)C(C(=O)NCC2CCCO2)c2ccccc2)cc1 (stereo not drawn),inactive: -0.46%,
Cc1cc(C(=O)N2CCCC(N3CCN(c4cccc(Cl)c4)CC3)C2)n(C)n1 (stereo not drawn),inactive: -3.51%,
COCCCNC(=O)/C=C/c1c(Cl)cccc1Cl,inactive: 22.5%,
NC(Cc1ccc(Cl)cc1)c1csc(NC(=O)NCC2CCCCC2)n1 (stereo not drawn),inactive: 16%,
Cc1ccc(S(=O)(=O)N2CCN(c3c([N+](=O)[O-])cc(C(F)(F)F)cc3[N+](=O)[O-])CC2)cc1,inactive: -20%,
COc1cccc(NC(=O)Nc2nnc([C@H]3C[C@H](O)[C@@H](CO)O3)s2)c1,inactive: -7.97%,
O=C(NNC(=O)c1ccccc1Br)c1ccccc1Cl,inactive: 10.2%,
COc1ccc(CN2C(=O)c3cccc4cccc(c34)C2=O)cc1,inactive: 0.488%,
NC(=O)NCCN1CCN(c2ncc(C(F)(F)F)cc2Cl)CC1,inactive: -1.96%,
Cc1cccc(N(CC(=O)NC2CCCC2)C(=O)CCC(=O)Nc2nc(C)cs2)c1,inactive: 7.46%,
O=C(CCc1nnc(C2CCCCC2)o1)NCc1ccc(F)c(F)c1,inactive: 3.6%,
COc1ccc(N(C(=O)c2snc(C(N)=O)c2N)C(C(=O)NCc2ccccc2)c2ccc(O)cc2)cc1 (stereo not drawn),inactive: -1.75%,
CNC(=O)CSc1nc2cc(S(=O)(=O)Nc3ccccc3OC)ccc2o1,inactive: 10.8%,
Cc1cc(S(=O)(=O)NCCc2ccccc2)ccc1-n1cnnn1,inactive: -3.7%,
COc1ccc(C2=NN(Cc3ccccc3)C3C(=O)NC(=O)C23)cc1 (stereo not drawn),inactive: -5.4%,
C(=N/Nc1nccs1)/c1cccnc1,inactive: 16.1%,
Cc1ccccc1Cn1c(=N)n(CC(=O)c2ccc([N+](=O)[O-])cc2)c2ccccc21,inactive: 2.57%,
CCOc1cc(N2CCOCC2)c(OCC)cc1NC(=O)C(C)C,inactive: 1.77%,
Cc1cccc(N(Cc2ccc(Cl)cc2)S(C)(=O)=O)c1,inactive: 17.9%,
Cc1cc(C(C)(C)C)cc(C)c1S(=O)(=O)N1CC(=O)Nc2ccccc21,inactive: 20.8%,
CC(NC(=O)c1ccc(CS(C)(=O)=O)cc1)c1ccc(-c2ccccc2)cc1 (stereo not drawn),inactive: 15.6%,

SMILES,growth rescue (activation),Potency
O=C(O)CCNc1cc(N2CCN(C(=O)c3ccco3)CC2)c2noc3c2c1C(=O)c1ccccc1-3,inactive: -32.7%,
COc1ccc(NS(=O)(=O)c2ccc(C(=O)N3CCCCCC3)cc2)cc1,inactive: -1.62%,
CC(NC(=O)c1ccccc1Cl)C1CC2CCC1C2 (stereo not drawn),inactive: 15.5%,
O=C(CSc1nc2ccc(Cl)cc2[nH]1)NCCc1ccc(Cl)cc1,inactive: 1.01%,
O=C(CSc1ccccc1C(=O)O)NC1CCCCCC1,inactive: 5.61%,
O=C(Nc1ccc(F)cc1)C1CC(=O)n2cnnc2N1 (stereo not drawn),inactive: -2.05%,
NS(=O)(=O)c1ccc(CCNC(=O)CSc2ncnc3ccccc23)cc1,inactive: 2.54%,
O=C(N/N=C/c1cn(-c2cccs2)nc1-c1ccccc1)c1ccccc1Cl,inactive: -1.65%,
COc1ccc(C(=O)NC(C)c2nnc(SCC(=O)NC3=NCCS3)n2C)cc1 (stereo not drawn),inactive: -12.1%,
O=C(NC(=S)Nc1ncccn1)c1ccc(F)cc1,inactive: 15.7%,
OC(COc1ccc(F)cc1Cl)CN1CCc2ccccc2C1 (stereo not drawn),inactive: -1.25%,
C/C(=N\NC(=O)Cn1cnc2ccccc21)c1cccs1,inactive: -3.16%,
COc1cc(OC)cc(C(=O)N[C@H](C(=O)NNC(=O)c2ccc(Br)cc2)C(C)C)c1,inactive: 13.5%,
COc1cc(NC(=O)c2cccs2)c(OC)cc1NC(=O)Nc1ccc(F)cc1,inactive: -4.41%,
O=C(NCCCNC(=O)c1ccco1)c1ccc(F)cc1,inactive: 14.3%,
NC(=O)NC(=O)COC(=O)c1ccc2noc(-c3ccccc3)c2c1,inactive: 9.18%,
CCCNC(=O)C1(C)CCCN(C(=O)c2cccc(OC(F)(F)F)c2)C1 (stereo not drawn),inactive: -6.83%,
Cn1cc(CN2CCCCC2c2ccccn2)c(-c2ccc3c(c2)OCCO3)n1 (stereo not drawn),inactive: -18.4%,
Cc1ccsc1-c1nc(CN2CCN(C)C(=O)[C@@H]2C)c(C)o1,inactive: 18.8%,
CSC1=NSC2=NC(=O)/C(=C/c3coc4ccccc4c3=O)C(=N)N12,inactive: -94.3%,
O=C(c1ccccc1F)N(Cc1cccnc1)Cc1cc2cc3c(cc2[nH]c1=O)OCCO3,inactive: 0.469%,
COc1ccc(CCNC(=O)c2c(C)nn(-c3ccccc3)c2Cl)cc1OC,inactive: 18.8%,

SMILES,growth rescue (activation),Potency
OCCC1CN(Cc2cnc(-c3ccccc3)s2)CCN1C1CCCCC1 (stereo not drawn),inactive: -4.83%,
Nc1nc(CN2CCN(c3ccccc3F)CC2)nc(N2CCCc3ccccc32)n1,inactive: 9.47%,
CC(C(=O)N1CCCCC1)N(C)CC(=O)Nc1ccc(Cl)cc1 (stereo not drawn),inactive: -4.04%,
COc1ccc(S(=O)(=O)NCc2ccccn2)cc1NC(=O)c1ccccc1,inactive: 2.73%,
C=Cc1ccc(Cn2c(C(=O)OC)cc3sc(C)cc32)cc1,inactive: 10.3%,
Cc1c(C(=O)N2CCC2)oc2ccc(Cl)cc12,inactive: 13.2%,
CCOc1ccccc1Nc1nnc(SCC(=O)NCC2CCCO2)s1 (stereo not drawn),inactive: -3.22%,
Cc1ccc(NC(=O)CSc2nncc3ccccc23)cc1,inactive: 12.8%,
Cc1ccc(C)c(NC(=O)COC(=O)CC2CC3CCC2C3)c1 (stereo not drawn),inactive: 3.14%,
Cc1ccc(C(=O)OCC(=O)N2c3ccccc3NC(=O)C2(C)C)cc1S(=O)(=O)N1CCCCC1,inactive: 23.8%,
Cc1cc(NC(=O)CCc2ccccc2)c([N+](=O)[O-])cc1C,inactive: 36.9%,
Cc1cc(Br)ccc1OCCNCc1ccccc1,inactive: 3.95%,
Cc1ccc(-c2cc(C(=O)O)c3sc(N4CCCCC4)nc3n2)cc1,inactive: -0.956%,
O=[N+]([O-])c1ccc(NC(=S)NCCc2ccc(F)cc2)cc1,inactive: -90%,
Cc1cc2cc(CCNS(=O)(=O)c3ccc(F)cc3)c(=O)[nH]c2cc1C,inactive: 8.3%,
O=C1CN(C(=O)c2ccco2)C(c2ccccc2)c2cc(Cl)ccc2N1 (stereo not drawn),inactive: 26.3%,
O=C(O)CCCN1C(=O)C2C3c4ccccc4C(c4ccccc43)[C@@H]2C1=O (stereo partly drawn),inactive: 16.9%,
Cc1nc(SCCOc2ccc(Cl)cc2)[nH]c(=O)c1Cc1ccccc1,inactive: 9.98%,
Cc1cc(C)cc(C(=O)OCC(=O)N2CCCC2)c1,inactive: 16.2%,
O=C(c1ccc(NS(=O)(=O)c2cccs2)cc1)N1CCOCC1,inactive: 6.21%,
CN(C)c1nc(-c2ccccc2)cc(C(F)(F)F)c1C#N,inactive: 28.7%,
CC(=O)c1cc(CC(=O)N2CCc3c([nH]c4ccccc34)C2c2ccccn2)cs1 (stereo not drawn),inactive: -13.1%,

SMILES,growth rescue (activation),Potency
O=C(C1CCN(C2CCN(Cc3ccc4c(c3)CCO4)CC2)CC1)N1CCCC1,inactive: -1.7%,
C[C@H](NC(=O)c1ccco1)C(=O)Nc1ccc(C#N)cc1,inactive: 5.01%,
CCCCOC(=O)Nc1nnc(-c2ccccc2OC)s1,inactive: 6.11%,
CCCCN(CC)CCNC(=O)c1cc2c(=O)n(C)c3ccccc3c2s1,inactive: -5.02%,
COc1ccc(NC(=O)CSc2nc3[nH]c(=O)[nH]c(=O)c3s2)cc1OC,inactive: -3.74%,
CCOC(=O)c1c(C)[nH]c(C)c1C(=O)COC(=O)c1cccnc1Cl,inactive: 20.4%,
Cc1ccc(CC(=S)N2CCOCC2)cc1,inactive: 4.88%,
O=C(NC1CCCc2ccccc21)c1cc(F)cc(F)c1 (stereo not drawn),inactive: 22.7%,
Cc1nc(CC(=O)NNS(=O)(=O)c2ccc(F)c(Cl)c2)cs1,inactive: 14.2%,
Cc1cc(Oc2cc(N)cc([N+](=O)[O-])c2)ccc1Cl,inactive: 13.4%,
COc1ccc(-c2noc(CN(C)C(=O)c3ccoc3C)n2)cc1OC,inactive: -1.95%,
CCOC(=O)N(C)c1c(CC)nc2c(OCc3ccccc3)cccn12,inactive: 0.505%,
COc1ccc(C(CNS(=O)(=O)c2ccc(NC(C)=O)c(OC)c2)N2CCCCC2)cc1 (stereo not drawn),inactive: 8.24%,
CC(=O)c1ccc(N2CCN(C(=O)CCC(=O)c3cccs3)CC2)cc1,inactive: 2.81%,
NS(=O)(=O)c1ccc(NC(=O)CN2CCN(S(=O)(=O)/C=C/c3ccccc3)CC2)cc1,inactive: -15.3%,
Cc1noc(C)c1C(=O)OCC(=O)Nc1ncc(Cl)c(C)c1Cl,inactive: 32.2%,
O=C(Nc1ccccc1Cl)C1C2CCCCC21 (stereo not drawn),inactive: 12%,
CC1(C)CC(=O)C2=C(C1)N(c1ccccc1)C(N)=C(C#N)C2c1ccsc1 (stereo not drawn),inactive: -9.47%,
CCC(C(=O)NC1CCCC1)N(C(=O)Cn1nnc(-c2ccc(C)o2)n1)c1ccc(OC)cc1 (stereo not drawn),inactive: 6.94%,
COc1cc(NC(=O)c2ccccc2)c(OC)cc1NC(=O)CN1CCOCC1,inactive: -3.69%,
COc1ccc(CNC(=O)CNC(c2ccccc2)c2ccccc2)cc1OC,inactive: -24.1%,
CC(SCc1ccccc1)C(=O)Nc1ccccc1-c1ccccc1 (stereo not drawn),inactive: 0.992%,

SMILES,growth rescue (activation),Potency
Cc1ccnc(NS(=O)(=O)c2ccc(NC(=O)/C=C/c3ccccc3)cc2)n1,inactive: 3.98%,
COC(=O)C1CCN(C(=O)/C=C/c2ccccc2)CC1,inactive: -12.3%,
CCOC(=O)Cc1csc(SCC(=O)N2CCN(c3ccccc3)CC2)n1,inactive: 37.9%,
Cn1nc(-c2ccc(N3CCN(CCO)CC3)c([N+](=O)[O-])c2)c2ccccc2c1=O,inactive: -0.771%,
CSc1nc2ccccc2n1CC(=O)N1CCCCC1,inactive: -17.3%,
O=C(O)C1Cc2ccccc2CN1C(=O)COc1ccc(Cl)cc1 (stereo not drawn),inactive: -4.19%,
CCOc1ccccc1OCCn1nc2ccccc2n1,inactive: 21.2%,
Cc1ccccc1NC(=S)N1CCN(C(=O)c2ccco2)CC1,inactive: 0.678%,
O=S(=O)(Nc1ccccc1)c1cccc2nsnc12,inactive: 9.36%,
COc1ccc(Br)cc1CN1C(=O)NC2(CCCCCC2)C1=O,inactive: -2.81%,
CS(=O)(=O)c1ccccc1C(=O)Nc1ccc(S(=O)(=O)N2CCCC2)cc1,inactive: 10%,
CCOC(=O)CNC(=O)C1CCN(S(=O)(=O)c2ccc(-c3nn[nH]n3)cc2)CC1,inactive: -0.977%,
OC[C@@H]1CN(Cc2ccccc2)C[C@H](n2cnc3c(NCc4ccco4)ncnc32)O1,inactive: 5.64%,
COc1ccc(-c2cnnc(N/N=C/c3ccc(O)c(O)c3)n2)cc1,inactive: 0.523%,
COc1cc(CC(=O)OCC(=O)c2ccc(F)cc2)cc(OC)c1OC,inactive: 3.95%,
O=C(CCCSc1nc2ccccc2s1)NCc1ccc2c(c1)OCO2,,active: 12.6 µM
C/C(=N/NC(=O)c1cccnc1)C1=C(O)CC(C)(C)CC1=O,inactive: -10.8%,
CN1CCN(C(=O)c2cccc(NS(=O)(=O)c3ccc(Br)cc3)c2)CC1,inactive: 17.4%,
O=C1NC(c2ccc(-c3ccccc3[N+](=O)[O-])o2)C(C(=O)c2ccc(Cl)cc2)C(O)(C(F)(F)F)N1 (stereo not drawn),inactive: 7.15%,
COc1ccc(C(=O)NCC(=O)N2CCN(C(=O)c3ccco3)CC2)cc1,inactive: 0.0093%,
